# Measurements taken from paper PMC12136788.
# Residue numbers refer to the chain shown, from its start. The list shows a part of the results.
# T1: UNK ZnF1-6 (called full-length) (human, UniProt Q9C0B0 30-357)
# T1 sequence: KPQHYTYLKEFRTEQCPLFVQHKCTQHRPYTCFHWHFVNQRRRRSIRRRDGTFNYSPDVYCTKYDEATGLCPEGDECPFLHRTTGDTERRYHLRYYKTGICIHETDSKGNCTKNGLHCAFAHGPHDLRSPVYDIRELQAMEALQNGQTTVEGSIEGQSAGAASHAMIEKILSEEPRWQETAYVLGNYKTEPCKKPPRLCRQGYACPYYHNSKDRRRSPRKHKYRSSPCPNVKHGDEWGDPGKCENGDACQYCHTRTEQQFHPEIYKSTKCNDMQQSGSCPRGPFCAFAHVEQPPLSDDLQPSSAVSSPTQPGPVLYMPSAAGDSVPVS
# B1: chr22:35662008:35662068:+|3pUTR|ENSG00000221963|msi1_unk|FALSE|overlapping (ssRNA)
# RNA: GGGAGUUCUACAGUCCGACGAUCUGAGCAACUUUUAAUUAUUCUCCUGUCCUGCAAUAUGAGUUAAUCUUCUCUGAUCGAUGUAGAUUCCAGGAAGGGGUGUCCAGGACAAUUACCUUCCUUCUGGAGAAACUUCCCUUAAUCCAACAGAGGAUUGAGCAUCA
# B2: chr3:197282668:197282805:-|CDS|ENSG00000075711|msi1|total|mutant (ssRNA)
# RNA: GGGAGUUCUACAGUCCGACGAUCUGGGAGAUUUCCAGCCUUCCAAGCUCUACUGUGACUUCAGAGACACUGCCAAGCAGCCUCCGCCCCCGUGCCGAGGUGAGAUAAAAAAUGUGUUCUGAAGCUGUUUUUUGGUGAUCAAUUCAACAGAGGAUUGAGCAUCA
# B3: chr3:170392585:170392686:+|3pUTR|ENSG00000136603|msi1|total|mutant (ssRNA)
# RNA: GGGAGUUCUACAGUCCGACGAUCUACAUUUUCCAAAUGAAUGAAAAUGUAUGUUUCUUUGUACUUUUUUAAAAAAAUCAGCUCCGUAACAAUACUAUAUGGUUUCAACCCGCCGGUAAUCUGCUUAUAUUUCUAAUGCAAACUCAACAGAGGAUUGAGCAUCA
# B4: ENSG00000136451:be:win_4101|3pUTR|ENSG00000136451|bound_else_gene|NA|bound_elsewhere_windowed (ssRNA)
# RNA: GGGAGUUCUACAGUCCGACGAUCGUCUUGGAACUGGAAUUGAGUUUCGAUGUUGAUGAACUGAUUCAACCAGGUGUUGAAGGCACGACAGCCACUGCUCUACGAAAAGGCAGAGUACGUUUUUCCCUUCUGGUUGUAACCUGGCAACAGAGGAUUGAGCAUCA
# B5: chr4:76435395:76435496:+|5pUTR|ENSG00000138771|msi1|total|mutant (ssRNA)
# RNA: GGGAGUUCUACAGUCCGACGAUCUUUUCUCUCCUAAGAAACAAACUAUGAACUGAUUGUUGAAAAAAAGAAGUAAAAAGUUUCCGCACAGCUUCUCUGUCUCUUCGGGACAAGUCCGAAAAUUCUGAAGUGAGCCGAAGCAUACAACAGAGGAUUGAGCAUCA
# B6: chr11:18297563:18297669:-|CDS|ENSG00000110756|unk|FALSE|unique (ssRNA)
# RNA: GGGAGUUCUACAGUCCGACGAUCGAUCUAAUUUCUCAACUGGAAGAAUUGAUCUUAAAAUUUGAACCUUUGGAUUCAGCUUGUAGCAGUAGAAGAAGCUCCAUUUCAUCACAUGUAAGUAUUCUCACCUUUAAAGGAUUUUGUCAACAGAGGAUUGAGCAUCA
# B7: chr2:182777146:182777247:+|3pUTR|ENSG00000077232|msi1|total|mutant (ssRNA)
# RNA: GGGAGUUCUACAGUCCGACGAUCUGAAGAUGAAGAAAAAGUUUAAAAGAAAUUCUGACAGAUGACAUCAGAAGACACCUAUUCCGAAUGUUACAUUUAUGAUGGGAAUGAAUGAACAUUAUCUCCGACUUGCAGUUGUACUGCCAACAGAGGAUUGAGCAUCA
# B8: chr22:35662008:35662068:+|3pUTR|ENSG00000221963|msi1_unk|total|mutant (ssRNA)
# RNA: B1 RNA with U83C, A84C
# B9: chr1:109313209:109313310:-|3pUTR|ENSG00000134243|msi1|FALSE|unique (ssRNA)
# RNA: GGGAGUUCUACAGUCCGACGAUCCAGGGCAAUAUUUUUAACUUGGGGCAGGAAGAAGGGAGCAGCAGAGAAUUGACUAGAUAUAGCACCUAUUAAAAGAGAACUCUUGCUUCUUCUGAGAUUUUUCAAGCUGUGCUUUGUGUGCAACAGAGGAUUGAGCAUCA
# B10: chr6:125889563:125889680:+|CDS|ENSG00000111912|unk|FALSE|unique (ssRNA)
# RNA: GGGAGUUCUACAGUCCGACGAUCCAAGCAGUCUGGUUCGCCAGAAAGCCGAGUAGAAAACACACUGAACAUACAUGAAGAUUUAGAUAAAGUUAAACUCAUUGAAUAUUACCUGACUAAGAACAAAGAAGGGCCACAGGUAUCCAACAGAGGAUUGAGCAUCA
# B11: chr9:125437660:125437767:-|3pUTR|ENSG00000119487|unk|total|mutant (ssRNA)
# RNA: GGGAGUUCUACAGUCCGACGAUCUGAUGUCCUUACUGUCCCCAGCCAGGGCCGGGGACCGGUGUUUCACUGAGGACCUGCAUCCGAAACAUUUUUUAAAUUGUUGUACAGGAAGAGAUGUGUCUAAAACAGCAUCUUAAAGCUCAACAGAGGAUUGAGCAUCA
# B12: chr1:109062750:109062855:-|3pUTR|ENSG00000197780|unk|FALSE|unique (ssRNA)
# RNA: GGGAGUUCUACAGUCCGACGAUCGCUUUCAGUAGCAGGAAUGGCAUUGUUUAAAAAGCUGAUGGCAGGGUAAGCAUUUGGGUUAGUGUUUUAUUAACAUAUUUGUAAGUACUUGUUCAUUGUGGAAAUGUGUCCUUGACUAAACAACAGAGGAUUGAGCAUCA
# B13: chr9:69711526:69711627:-|3pUTR|ENSG00000188647|unk|total|mutant (ssRNA)
# RNA: GGGAGUUCUACAGUCCGACGAUCGAACUGCUGCCGUCUUCUGCAAUCAGUCUCUGUAUUGGUAUAUCCAGUACUAUCGGGUUCCGGUUCUUUUUAUUUUUCCUUAAAUCUUACUUGUUUCCCGCGUCUUAAGAGUGGUAAUGGCAACAGAGGAUUGAGCAUCA
# B14: chr14:22906194:22906368:-|CDS|ENSG00000100461|control|control|control (ssRNA)
# RNA: GGGAGUUCUACAGUCCGACGAUCAGCCGAAGUCCAGGUCGGCAGUGUCGUCACCGUAGCCGUAGCUGGGAUCGUCGACAUGGUAGUGAGUCGCGAAGUCGGGACCAUCGUCGUGAGGAUCGUGUGCAUUACAGGAGUCCUCCACAACAGAGGAUUGAGCAUCA
# Target: T1, UNK ZnF1-6 (called full-length)
# Experiment: nsRBNS (natural sequence RNA bind-n-seq); RBNS binding buffer (assumed for nsRBNS): 25 mM Tris pH 7.5, 150 mM KCl, 3 mM MgCl2, 0.01% Triton X-100, 500 ug/ml BSA, 20 U/ml SUPERase-In, 4 C; UNK is unkempt and MSI1 is Musashi-1; names of the RNAs are library labels; protein concentration not given here; high values mean tight binding
row,Binder,binding signal [enrichment R]
1,B1,0.37
2,B2,0.513
3,B3,0.408
4,B4,0.558
5,B5,0.287
6,B6,0.455
7,B7,0.386
8,B8,0.484
9,B9,1.32
10,B10,1.24
11,B11,0.503
12,B12,0.667
13,B13,0.504
14,B14,1.13
